Assay results: PubChem BioAssay AID1634 (National Center for Advancing Translational Sciences (NCATS), 2009)
In all, about 260,000 compounds went through this assay and about 150 (0.058%) were called active. Inconclusive means that the source gave no clear call. Such entries were picked first, then a sample of the others. Calls come from the whole dose curve; as a rule, active = well fitted inhibition curve with a large enough effect; inconclusive = small, poorly fitted or top-dose-only effect; inactive = no such curve, though single readings can be large or run the other way. Potencies of inconclusive entries are left out as doubtful fits.

target: Pyruvate kinase PKM (Homo sapiens) (UniProt P14618); experiment: qHTS Assay for Inhibitors of Human Muscle isoform 2 Pyruvate Kinase; details: purified PKM2, ATP generation, Kinase-Glo luminescence; series mostly up to 57.5 µM; note: nearly all actives have a fitted effect of over 60% in size
Sequence of UniProt P14618 (P14618 whole entry, looked up, canonical isoform): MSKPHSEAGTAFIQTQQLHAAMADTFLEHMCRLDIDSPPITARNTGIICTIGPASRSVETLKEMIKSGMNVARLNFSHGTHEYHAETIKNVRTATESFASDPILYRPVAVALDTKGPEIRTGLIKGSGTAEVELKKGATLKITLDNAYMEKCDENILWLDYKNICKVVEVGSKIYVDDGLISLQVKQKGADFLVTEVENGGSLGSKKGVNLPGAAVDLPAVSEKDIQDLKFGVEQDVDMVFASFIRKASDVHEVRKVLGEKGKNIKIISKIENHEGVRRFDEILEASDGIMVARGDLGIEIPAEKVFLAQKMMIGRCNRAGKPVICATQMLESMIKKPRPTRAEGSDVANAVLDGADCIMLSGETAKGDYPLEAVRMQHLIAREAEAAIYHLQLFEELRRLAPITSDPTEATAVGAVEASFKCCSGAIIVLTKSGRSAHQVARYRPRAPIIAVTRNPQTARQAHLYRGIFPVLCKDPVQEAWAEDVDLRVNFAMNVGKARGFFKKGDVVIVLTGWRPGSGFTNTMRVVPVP
Procedure: NIH Chemical Genomics Center [NCGC] Matthew G. Vander Heiden, M.D., Ph.D. [Harvard Medical School, 77 Avenue Louis Pasteur, Boston, MA 02115] […] ATP generation was detected in a coupled reaction by luciferase-mediated luminescence, an ATP-dependent process. […] The enzyme was assayed at an intermediate level of activity to screen for both inhibitors and activators.
NCGC Assay Protocol Summary: Three uL of substrate mix (at r.t.) in assay buffer (50 mM Imidazole pH7.2, 50 mM KCl, 7 mM MgCl2, 0.01% Tween 20, 0.05% BSA) was dispensed into white solid bottom 1,536 well microtiter plates so that the final concentrations of substrates in the assay were 0.1 mM ADP and 0.5 mM PEP. 23 nL of compound were delivered by a pin tool and 1 uL of enzyme mix in assay buffer (4 degree Celsius) was added. Plates were incubated at room temperature for 1 hour. Two uL of detection mix (Kinase-Glo, Promega; at 4 degree Celsius protected from light) was added and luminescence read by a ViewLux (Perkin Elmer) at 5 second exposure/plate. Data were normalized to the uninhibited and AC100 inhibition (no enzyme). To monitor activation, the first column contained a titration of the activator, NCGC00031955-01 (16-point 1:2 dilutions in duplicate starting at 57 uM) and the first 16 rows of column 4 contained 57 uM of NCGC00031955-01.
Potency is the fitted concentration of half-maximal effect; tags give direction and shape of the fitted curve.

Structure (SMILES)	Potency
Nc1cc(C2CCCC2)nn1-c1ccccc1	inconclusive [falling, partial curve]
CCOC(=O)N1CCN(S(=O)(=O)c2ccc(C(=O)N(CCCN(C)C)c3nc4ccc(Cl)cc4s3)cc2)CC1	inconclusive [falling, single point]
O=C(Nc1cccc(Cl)c1)c1cc(N=Nc2ccc([N+](=O)[O-])cc2Cl)ccc1O	inconclusive [falling, partial curve]
O=C(NCCc1ccccc1)c1ccc2c(c1)OCCCO2	inconclusive [falling, partial curve]
O=C(Nc1ccccc1C(=O)N/N=C/c1ccco1)c1ccccc1	inconclusive [falling, partial curve]
Cc1ccc(C)c(SCC(=O)Nc2ccc(S(=O)(=O)Nc3ncccn3)cc2)c1	inconclusive [falling, single point]
Cc1ccc(C(=O)O/N=C(\N)c2ccccc2)c(Cl)c1	active: 17.8 µM
N/C(=N\OC(=O)c1ccc([N+](=O)[O-])cc1Cl)c1ccccn1	inconclusive [falling, partial curve]
Cc1ccc(S(=O)(=O)CC#CCOC(=O)c2ccc([N+](=O)[O-])cc2)cc1	inconclusive [falling, full curve, poor fit]
S=c1[nH]nc(-c2ccc3ccccc3n2)o1	inconclusive [falling, single point]
COC(=O)c1[nH]c2ccccc2c1NC(=O)CN1CCCc2ccccc21	inactive
O=[N+]([O-])c1cnc2nc(-c3ccncc3)nn2c1O	inconclusive [falling, partial curve]
CC(=O)c1sc(-c2ccccc2)cc1N	inconclusive [falling, single point]
CCOc1ccc(N=Cc2c(C)[nH]n(-c3nc4ccccc4[nH]3)c2=O)cc1	inconclusive [falling, partial curve]
O=C(NC(=S)Nc1cnc2ccccc2c1)c1ccccc1	inconclusive [falling, single point]
Cc1ccc(-n2[nH]c(C)c(/C=N/N3C(=O)c4cccc5cccc(c45)C3=O)c2=O)cc1	inconclusive [falling, partial curve]
Cc1ccc(C2/C(=C(/O)c3ccc(Br)cc3)C(=O)C(=O)N2Cc2ccco2)o1 (stereo not drawn)	inactive
O=C(Nc1ccc(OCc2ccccc2)cc1)Nc1ccccc1C(=O)NCCCN1CCOCC1	inconclusive [falling, partial curve]
C=C(C)C(=O)N1CC2(CC(c3cccc(NC(=O)/C=C\C=C/C)c3)=NO2)C[C@H]1C(N)=O (stereo partly drawn)	inactive
Cc1ccc(C(=O)Nc2cc(-c3ccn[nH]3)c(C)n(N)c2=O)cc1	inconclusive [falling, partial curve]
Cn1ccc(C(=O)Nc2ccc3c(c2)OCCO3)n1	inconclusive [falling, partial curve]
Nc1cccc(-c2nc3ccc(N)cc3s2)c1	inconclusive [falling, partial curve]
CC(=NCc1ccco1)c1c(C(F)(F)F)[nH]n(-c2nc3ccccc3s2)c1=O	inconclusive [falling, single point]
COc1cccc(NC(=O)CC2C(=O)NCCN2C(=S)Nc2ccc(F)cc2)c1 (stereo not drawn)	inconclusive [falling, single point]
O=C(c1ccccc1)n1c(=S)nc2ccccn21	inconclusive [falling, partial curve]
CSc1nc2ccc(S(=O)(=O)N3CCc4ccccc43)cc2s1	inactive

Structure (SMILES)	Potency
CC1Cc2nc(SCC(=O)Nc3nccs3)n(C)c(=O)c2S1 (stereo not drawn)	inactive
C=CCOC(=O)CCP(=O)(CCC(=O)OCC=C)c1ccccc1	inactive
O=C(CSc1cccc[n+]1[O-])Nc1ccc(C(F)(F)F)cc1[N+](=O)[O-]	inconclusive [falling, single point]
Cc1ccccc1NC(=O)CSc1ccncc1	inconclusive [falling, single point]
O=c1[nH]c(=O)n(CCO)c2nnn(Cc3ccccc3)c12	inactive
Cc1ccc2c(Cl)c(C(=O)Nc3nn[nH]n3)sc2c1	inconclusive [falling, single point]
Cc1ccc(S(=O)(=O)N(C)C)cc1NC(=O)COC(=O)c1ccc2c(c1)NC(=O)CS2	inconclusive [falling, single point]
Cc1oc(-c2ccccc2F)nc1CS(=O)CC(=O)NC1CCCCC1 (stereo not drawn)	inconclusive [falling, single point]
N/C(=N\OC(=O)c1ccc(F)cc1)c1nonc1N	inconclusive [falling, partial curve]
CCOc1ccc(N=Cc2c(O)c3ccccc3oc2=O)cc1	inconclusive [falling, single point]
CSc1nc(C)nc(C2CC2)c1C#N	inconclusive [falling, single point]
CCCCCCCN1CCC(=O)N([C@H](CO)c2ccccc2)CC1	inactive
CCOc1ccc(C(=O)O/N=C(\N)c2ccccn2)cc1	active: 7.94 µM
Cn1nc(C(=O)Nc2ccc3c(c2)OCCO3)cc1C(=O)O	inconclusive [falling, partial curve]
C=C(C)CN=c1scc(C)n1/N=C/c1ccco1	inactive
COc1ccc(S(=O)(=O)NCC2CCCN(C(=O)c3ccccc3)C2)cc1 (stereo not drawn)	inactive
O=c1[nH]c(-c2cccs2)nc2ccccc12	inactive
O=C(CCC(=O)N1CCN(S(=O)(=O)c2cccc(F)c2)CC1)c1cccs1	inactive
CCN1C=CC(=C2C(=O)c3ccccc3C2=O)C=C1	inconclusive [falling, single point]
COCCn1c(-c2ccccc2)cnc1SCC(=O)Nc1cccc2ccccc12	inactive
COc1cc([N+](=O)[O-])cc2sc(NC(C)=O)nc12	inactive
N#CCc1ccc(NS(=O)(=O)c2cccs2)cc1	inactive
COc1ccc(C(=O)/C=C/Nc2ccccn2)cc1	active: 15.8 µM
O=C(OC1CCCCC1=O)c1cc(=O)c2ccccc2o1 (stereo not drawn)	inconclusive [falling, single point]
CCOC(=O)c1c(N2C(=O)CC(Sc3ccccc3C(=O)O)C2=O)sc2c1CCCC2 (stereo not drawn)	inactive
Clc1ccc(/C=C/c2nc3ccccc3[nH]2)cc1	inconclusive [falling, partial curve]

Structure (SMILES)	Potency
CCCc1cc(=O)[nH]c(Nc2ccc3c(c2)OCCO3)n1	inconclusive [falling, single point]
O=C(CN1CCN(c2ccc(O)cc2)CC1)Nc1ccc2c(c1)OCCO2	inactive
Nc1nonc1-n1nnc(C(=O)N/N=C/c2ccccc2Cl)c1CSc1ccccc1	inactive
O=S(=O)(Nc1nccs1)c1ccc2c(c1)OCCO2	inactive
Cc1cc(C)c(C#N)c(SCc2ccccc2F)n1	inactive
Cc1cc(O)c(C(C)C)cc1N=C1CSC(=O)N1	inactive
CSc1nc2ccc(NC(=O)c3ccc(=O)n(C)n3)cc2s1	inconclusive [falling, single point]
Cc1ccccc1-c1noc(-c2ccc(O)cc2)n1	inconclusive [falling, single point]
CCOC(=O)CC1Sc2ccccc2NC1=S (stereo not drawn)	inconclusive [falling, single point]
O=C(c1ccc(F)cc1)n1c(=S)nc2ccccn21	inconclusive [falling, partial curve]
Cc1ccc(NC(=O)C2C3CCCC2C3c2ccccc2)cc1 (stereo not drawn)	inactive
CCOC(=O)c1sc(NC(=O)c2sccc2C)cc1C	inconclusive [falling, single point]
Cc1cc(NC(=O)c2ccoc2C)no1	inconclusive [falling, single point]
CC(=O)Nc1ccc(NC2=C/C(=N/S(=O)(=O)c3cccs3)c3ccccc3C2=O)cc1	inconclusive [falling, single point]
Cc1cc(C)c2nc(-c3ccco3)cc(C(=O)O)c2c1	inactive
N/C(CS(=O)(=O)c1ccccn1)=N\OC(=O)c1ccccc1Cl	inactive
COc1ccc(NC(=O)Nc2ccccc2SC)cc1	inconclusive [falling, partial curve]
C=CCn1c(COc2ccccc2OC)nc2ccccc21	inactive
CC(=O)c1cc(C#N)c(SCC(=O)Nc2nccs2)nc1C	inactive
O=C(Nc1ncc([N+](=O)[O-])s1)c1ccco1	inconclusive [falling, partial curve]
COc1ccc(CNC(=O)CCSCc2ccc(C)cc2)cc1	inconclusive [falling, single point]
Cc1nc2sc(-c3ccccc3)cc2c(=O)n1N	inconclusive [falling, partial curve]
Cc1ccc(-c2nnn(CC(=O)N(Cc3ccco3)C(C(=O)NC(C)(C)C)c3cccs3)n2)o1 (stereo not drawn)	inactive
O=c1/c(=C\c2cc([N+](=O)[O-])cc([N+](=O)[O-])c2O)sc2nc3ccccc3n12	inconclusive [falling, partial curve]
Cc1cc2c(cc1S(=O)(=O)N(C)c1ccccc1)n(C)c(=O)n2C	inactive
O=C(Nc1ccc(-c2cn3ccccc3n2)cc1)c1ccco1	inconclusive [falling, single point]
